From PubChem BioAssay AID434955 (Southern Research Specialized Biocontainment Screening …, 2010)
The list shows a part of the results. Shown are side measurements of this screen, not its main read-out; they come without a call. Most of these compounds were active or inconclusive in the main read-out, so they are no random draw.

Assay: beta-lactam sensitization of Mtb H37Rv, H37Rv (AID 434955);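 further: growth measured after seven days incubation then overnight dye step; 0% = bacteria only wells and 100% = bacteria with antibiotic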
Settings: M. tuberculosis H37Rv growth with meropenem, percent inhibition; measured here: primary screen without meropenem; at 25 µM

Row | Compound | inhibition
1 | COc1ccc(N2CCN(C(=O)C3CCN(C(=O)c4ccc([N+](=O)[O-])cc4)CC3)CC2)cc1 | -3.56%
2 | CCCCN(C)CC(O)Cn1cc(/C=C/C(=O)c2ccc(C)cc2)c2ccccc21 (configuration not stated) | 99.2%
3 | COC(=O)COc1ccc(S(=O)(=O)NCCC2=CCCCC2)cc1C | -6.83%
4 | CCCCCn1c(=O)[nH]c2cc(C(=O)NCCc3ccc(OC)c(OC)c3)ccc2c1=O | 3.45%
5 | COc1ccc(-c2ccc3c(N)c(C(=O)c4ccc(OC)c(OC)c4)sc3n2)cc1 | -4.33%
6 | Cc1ccc2nccc(C(=O)N3CCCC(N4CCN(c5ccc(F)cc5)CC4)C3)c2c1 (configuration not stated) | 7.45%
7 | CCCn1nc2cc(C(=O)NCCCCc3ccccc3)ccc2c1OCC | 4.33%
8 | Cc1cc(S(=O)(=O)N2CCCC(N(C)CCc3ccccn3)C2)c(C)s1 (configuration not stated) | 3.55%
9 | CCn1c(SCC(=O)c2[nH]c(C)c(C(C)=O)c2C)nnc1-c1cccs1 | 1.85%
10 | Cc1ccnc(NC(=O)c2cccc3ccccc23)c1 | -3.03%
11 | O=C(OCC(=O)N(Cc1ccccc1)C1CCS(=O)(=O)C1)c1cc2c(s1)CCCC2 (configuration not stated) | -7.73%
12 | CN(CCOc1ccccc1)C(=O)C1CCC(=O)N(CCCN2CCOCC2)C1 (configuration not stated) | 14.5%
13 | CCN1C(=O)/C(=C\N2CCN(c3ccc(F)cc3)CC2)SC1=S | 16%
14 | COc1ccc(CNC(=O)CCc2nnc3ccc(N4CCC5(CC4)OCCO5)nn23)cc1 | -0.52%
15 | COc1ccc(-c2csc(Nc3ncccc3C)n2)cc1OC | 46.5%
16 | Cc1ccc(C#N)c(SCc2nnc(-c3ccc(Cl)cc3)o2)n1 | 2.98%
17 | COc1ccc(NC(=S)NNC(=O)c2ccccc2OC(F)F)cc1 | 2.8%
18 | CCOC(=O)N1CCC(NC(=O)C(CC(C)C)NC(=O)C2CCC(C)CC2)CC1 (configuration not stated) | -3.24%
19 | CCCn1nnc(NC(=S)NC(=O)CC)n1 | 54.6%
20 | COc1ccccc1Oc1ccc(S(=O)(=O)N2CCCCC2)cc1NC(=O)CCNC(C)=O | 22.5%
21 | Cc1cc(C)nc(SCC(=O)OCC(=O)N(C)c2c(N)n(Cc3ccccc3)c(=O)[nH]c2=O)n1 | 0.06%
22 | COc1ccc(CCNCc2csc3nc4ccccc4n23)cc1OC | 32.1%

Row | Compound | inhibition
23 | CC/C(CC(C)(C)c1ccccc1)=N\O | -8.25%
24 | CNC(=O)COC(=O)c1ccccc1NC(=O)c1ccco1 | 50.2%
25 | O=C(NCCC1=CCCCC1)NC1CCCCC1 | 7.21%
26 | CC(C)NC(=S)NN=C1c2ccccc2-c2ccccc21 | -0.95%
27 | CCn1cc(C(=O)N2CCOCC2)c(=O)c2cc(S(=O)(=O)N(C)C3CCCCC3)ccc21 | -3.63%
28 | O=c1cc(-c2cc3ccccc3o2)c2cc(O)ccc2o1 | 2.31%
29 | O=C(CSc1ccc2nnc(-c3ccccn3)n2n1)Nc1cccc(F)c1 | -13.6%
30 | COc1cccc(C(=O)NNC(=O)c2ccccc2Br)c1 | -1.37%
31 | O=C(O)c1cc(S(=O)(=O)NCCN2CCNC2=O)ccc1O | 2.15%
32 | Cn1c(SCC(=O)NC2(C#N)CCCCC2)nnc1-c1cccnc1 | -1.31%
33 | Cc1c(O)ccc(C(=O)CN2CCN(c3ccccc3F)CC2)c1O | 5.35%
34 | O=[N+]([O-])c1cccn2cc(-c3ccc(Br)cc3)nc12 | 11.6%
35 | N#Cc1ccc(C23CC4(C2)[C@H](CN(Cc2cccnc2)[C@@H]4c2ccccc2)C3c2ccccc2)cc1 (some centres not stated) | 35%
36 | Cc1ccc2c(c1)N(CC(=O)NC1CCCCCC1)C(=O)c1cccnc1O2 | 1.85%
37 | CCOC(=O)c1ccc(-c2ccc(C=O)o2)cc1 | 12.7%
38 | COc1ccccc1/C=C/C(=O)c1c2c(c(C)[nH]c1=O)CCCC2 | -3.04%
39 | O=S(=O)(Cc1ccccc1)NCc1cccnc1 | -0.02%
40 | COc1cccc(N2CCN(c3cnc4ccccc4n3)CC2)c1 | -5.39%
41 | CCNC(=O)COn1c(SCC(=O)NCC)nc2ccccc2c1=O | -5.59%
42 | COC(=O)C1=C(C)NC(C)=C(C(=O)OCC2CCCO2)C1c1ccc(Cl)c([N+](=O)[O-])c1 (configuration not stated) | 4.23%
43 | O=C(N/N=C/C(Br)=C\c1ccccc1)c1ccc2nc[nH]c2c1 | 31.2%
44 | CCCN1CCc2c(sc(NC(=O)CCS(=O)(=O)c3ccccc3)c2C(=O)OC)C1 | -2.93%

Row | Compound | inhibition
45 | CCC(=O)Nc1cc(OC)c(NC(=O)c2ccccc2)cc1OC | 27.5%
46 | O=C(/C=C/c1cccs1)Nc1nc(-c2ccccc2)cs1 | 4.83%
47 | O=C1CCC(C(=O)N2CCCC(Nc3ccc(F)cc3)C2)=NN1 (configuration not stated) | -6.73%
48 | Cc1onc(NC(=O)c2ccc([N+](=O)[O-])o2)c1Br | -2.66%
49 | Cc1nc(/N=C(\N)NC(=O)c2ccccc2)nc2ccccc12 | 6.22%
50 | O=C(CN1C(=O)NC2(CCCC2)C1=O)OCCOc1ccccc1 | 2.39%
51 | CCCN(CCC)CCNC(=O)C1CCN(Cc2nc(-c3ccc(Cl)cc3)oc2C)CC1 | -18.7%
52 | Cc1ccc(C)c(NC(=O)C2Cc3ccccc3CN2C(=O)OCc2ccccc2)c1 (configuration not stated) | 41.9%
53 | CCOc1ccc(CCN2C(=O)C3C4C=CC(C4)C3C2=O)cc1OCC (configuration not stated) | -9.81%
54 | CCOc1ccc(CN2CCNC(=O)C2CC(=O)NC2CCOCC2)cc1 (configuration not stated) | -9.88%
55 | COc1ccc(N(C(=O)c2ccncc2)S(=O)(=O)c2ccc(F)cc2)cc1 | -0.01%
56 | Cn1ccnc1CN1CCN(C(=O)c2cc(COc3ccc(F)c(F)c3)on2)CC1 | 1.42%
57 | Cc1nc(CCNC(=O)CC2C(=O)NCCN2Cc2ccccc2)sc1C (configuration not stated) | -0.43%
58 | CCOC(=O)CN1C(=O)C2(OCCCO2)c2ccccc21 | 1.56%
59 | Cc1ccc(C(CC(=O)NCc2ccco2)c2ccccc2)c(O)c1 (configuration not stated) | 8.46%
60 | Cc1ccc2c(c1)cc1c(=O)n(CC(=O)N3CCC4(CC3)OCCO4)nc(C)n12 | 0.81%
61 | Cc1cc(C(=O)N/N=C/c2ccc(-c3ccc(C)c(Cl)c3)o2)n[nH]1 | 42.8%
62 | O=C(NCCN1CCNC1=O)C1CCC(=O)N(CCc2ccccc2)C1 (configuration not stated) | -14.5%
63 | COc1cc(C(=O)Nc2c(C(=O)O)[nH]c3ccc(Br)cc23)cc(OC)c1OC | 7.31%
64 | CCOc1ccc(CC(=O)Nc2c3c(nn2C(C)(C)C)CS(=O)(=O)C3)cc1 | 3.73%
65 | Cc1ccccc1N1CCN(C2CCCN(C(=O)c3csc(C(C)C)n3)C2)CC1 (configuration not stated) | -4.1%
66 | O=C(c1ccccc1-c1ncc[nH]1)N1CCCC(Nc2ccc(F)cc2)C1 (configuration not stated) | 0.59%

Row | Compound | inhibition
67 | O=C(N/N=C/c1cccc(O)c1)c1ccc2c(c1)OCCO2 | 3.78%
68 | O=C(Nc1cccc2ccccc12)/C(=C/c1cccc([N+](=O)[O-])c1)NC(=O)c1cccs1 | 1.82%
69 | Cc1ccc(C(=O)NCC(=O)Nc2ccncc2)cc1C | 0.43%
70 | Cc1c(C(=O)N2CCCCCC2)c(S(=O)(=O)Nc2cccc(F)c2)c(C)n1C | -2.39%
71 | CCOC(=O)c1sc(NC(=O)CSc2nnc(-c3ccc(OC)cc3)n2CCOC)nc1C | -19.8%
72 | O=C(CCN1C(=O)C2C3CCC(C3)C2C1=O)Nc1ccccc1Cl (configuration not stated) | 4.48%
73 | COc1ccc(S(=O)(=O)N2CCOC2CNC(=O)C(=O)NCc2ccccc2OC)cc1 (configuration not stated) | 0.15%
74 | CCCOc1ccccc1/C=N/Nc1ccnc(=O)[nH]1 | 1.76%
75 | CCOC(=O)c1c(C)[nH]c(C)c1S(=O)(=O)N(C)CC(=O)NCc1cccc(Br)c1 | -3.87%
76 | Cc1cc(C)n(-c2nc3sc4c(c3c(=O)[nH]2)CCCC4)n1 | 92.9%
77 | O=C(NCCOc1ccccc1)C1CCC(=O)N(C2CCCCCC2)C1 (configuration not stated) | -7.09%
78 | CCN(c1ccccc1)S(=O)(=O)c1cc2c(cc1C)N(C)CCO2 | 7.01%
79 | CC(Sc1nnc(-c2ccccc2Br)o1)C(=O)N1CCOCC1 (configuration not stated) | 2.93%
80 | O=C(NCCc1ccccn1)c1ccc(OC2CCN(Cc3ccccn3)CC2)cc1 | 5.24%
81 | CCOc1ccc(CCN2C(=O)CCC2(C)C(=O)NC(C)CC)cc1OCC (configuration not stated) | -4.27%
82 | CCC(C)(C(=O)NC1CCCC1)N(C(=O)c1ccccn1)c1ccccc1 (configuration not stated) | -10.4%
83 | O=C(c1cccs1)c1coc2ccc(O)c(CN(CCO)CCO)c12 | -3.65%
84 | O=C(CSc1nnc(CNC(=O)c2ccc(F)cc2)o1)NCc1ccccc1 | 9.12%
85 | Cc1ccc(NC(=O)C(=O)NCc2ccc(/C=N/NC(=O)c3c(C)nc4ccccn34)o2)cc1 | 8.21%
86 | O=C(Nc1ccccc1Cl)c1csc(-c2cccnc2)n1 | 31.8%
87 | CCc1ccc(N2C(=O)/C(=C/c3cccs3)N(CC(=O)OC)C2=S)cc1 | -1.87%
88 | O=C(NC(=S)Nc1ccccc1N1CCCCC1)c1ccc(F)cc1 | 2.92%

Row | Compound | inhibition
89 | CCn1c(=O)cc(OCC(=O)NCC2CCCO2)c2ccccc21 (configuration not stated) | 19.6%
90 | COc1ccc(Cl)cc1NC(=O)CN(C)C(=O)Cc1ccc2c(c1)CCC2 | 6.31%
91 | CCOC(=O)c1[nH]c(C)c(C(=O)NCc2cccnc2)c1C | -5.92%
92 | CCOC(=O)C1C(=O)NC(N2CCCCC2)=NC1c1ccccc1 (configuration not stated) | 3.45%
93 | CC(C)C(NS(=O)(=O)c1ccc2c(c1)C(C)(C)C(=O)N2C)C(=O)NCc1ccc(F)cc1 (configuration not stated) | -9.12%
94 | C=CCNc1oc(-c2ccco2)nc1S(=O)(=O)c1ccccc1 | 0.17%
95 | Cc1ccc(O)c(N=Cc2sc3ccccc3c2Cl)c1 | -1.75%
96 | O=C(NCc1ccccc1)NC(=O)c1ccncc1 | 2.33%
97 | Cc1cccc(N2C(=O)C(Cl)=C(N3CCOCC3)C2=O)c1 | -0.44%
98 | CCCn1ncc(CN2CCC(C(=O)Nc3cccc(-c4cccc(F)c4)c3)CC2)c1C | 9.62%
99 | CCc1c(C)nc(SC/C=C/c2ccccc2)[nH]c1=O | -1.33%
100 | COc1ccccc1-c1cc(C(=O)NCCCn2ccnc2)no1 | 1.3%
101 | O=C(C(NS(=O)(=O)c1cccc2nsnc12)c1ccccc1)N1CCN(c2ccccn2)CC1 (configuration not stated) | -10.4%
102 | O=C(CN1C(=O)NC2(CCCCCC2)C1=O)Nc1ccc(Br)cc1Br | 74.7%
103 | CCOC(=O)N1CCN(CC(=O)Nc2cc3c(cc2C(C)=O)OCO3)CC1 | 2.59%
104 | COc1cc(OCC(=O)NC(C)C)cc2c1C(=O)O[C@@H](C)CCCC(=O)CCCCC2 | -6.52%
105 | O=C(NCCCN1CCCC1=O)c1cn(-c2ccccc2)nc1-c1ccccc1 | 2.99%
106 | Oc1ccc(N=C/C=C/c2ccc(Br)cc2)cc1-c1nc2ccccc2s1 | -1.24%
107 | CCN(C(=O)c1ccc2c(SCC(=O)O)c3c(nc2c1)CCC3)c1cc(Cl)ccc1OC | -1.8%
